In publication PMC11589570, “Critical assessment of LC3/GABARAP ligands used for degrader development and ligandability of LC3/GABARAP binding pockets” (Nature Communications, 2024):

Key:
LC3C = LC3C (Homo sapiens, UniProt Q9BXW4); experiment: FP assay with Cy5-labelled p62 LIR tracer (protein titration and tracer displacement); format: binding; details: two replicate columns per compound
all LC3/GABARAPs = experiment: Covalent compound screening by ESI LC-MS; details: 50 µM protein, 100 µM compound, 90 min
LC3A = LC3A (Homo sapiens, UniProt Q9H492); experiment: FP assay with Cy5-labelled p62 LIR tracer (protein titration and tracer displacement); format: binding; details: two replicate columns per compound
GABARAP = GABARAP (Homo sapiens, UniProt O95166); experiment: as above; format: binding; details: two replicate columns per compound
Sequence of GABARAP (O95166 1-116): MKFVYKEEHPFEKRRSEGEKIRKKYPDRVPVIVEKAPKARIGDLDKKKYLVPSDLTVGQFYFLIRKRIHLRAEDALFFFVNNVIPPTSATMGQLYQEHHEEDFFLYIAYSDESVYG

GABARAPL1 = GABARAPL1 (Homo sapiens, UniProt Q9H0R8); experiment: as above; format: binding; details: two replicate columns per compound
Sequence of GABARAPL1 (Q9H0R8 whole entry): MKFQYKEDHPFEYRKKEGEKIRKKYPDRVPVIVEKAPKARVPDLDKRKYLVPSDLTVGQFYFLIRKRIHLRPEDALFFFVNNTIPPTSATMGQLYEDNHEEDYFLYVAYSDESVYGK

LC3/GABARAP = experiment: Chemoproteomic competition pulldown assay (affinity matrix, LC-MS/MS) in HEK293T lysate; format: binding; details: HEK293T cell lysate
Procedure: Preparation of Affinity Matrix 10O5 and 8F20: Compounds 18 and 19 (1 µM) were linked to DMSO-washed NHS-activated ( ~ […] beads) sepharose beads (1 mL) and triethylamine (20 µL) in DMSO (2 mL) on an end-over-end shaker overnight at RT in the dark. Aminoethanol (50 µL) was then added to inactivate the remaining NHS-activated carboxylic acid groups. […] Successful immobilization was controlled by LC-MS and Kaiser-test[46].
Preparation of cell lysates for affinity pulldown assays: HEK293 cells (ATCC; CRL-11268) were cultured in DMEM (PAN Biotech). All media were supplemented with 10% FBS (PAN Biotech) and cells were internally tested for Mycoplasma contamination. […] The protein amount of cell lysates was determined by Bradford assay and adjusted to a concentration of 5 mg/mL[46]. […]
LC-MSMS measurement of (competition) pulldown assays: Peptides were analyzed via LC-MS/MS on a Dionex Ultimate3000 nano HPLC coupled to an Orbitrap Fusion Lumos mass spectrometer, operated via the Thermo Scientific Xcalibur software. […]
The mass spectrometer was operated in data dependent mode, automatically switching between MS1 and MS2 spectra. […] Up to 12 peptide precursors were isolated (isolation width of 1.2 Th, maximum injection time of 75 ms, AGC value of 2e5), fragmented by HCD using 25 % […] normalized collision energy (NCE) and analyzed in the Orbitrap at a resolution of 15,000. […]

LC3/GABARAPs = experiment: Temperature shift assay (TSA/DSF); format: binding, human; details: DSF screening
Procedure: Temperature shift assay (TSA): Purified proteins were buffered in TSA buffer (25 mM HEPES pH 7.5, 500 mM NaCl) and were assayed in a 384-well plate (Thermo, #BC3384) with a final protein concentration of 20 μM in 10 μL final assay volume. Inhibitors were added in excess to a final concentration of 40 μM, using an ECHO 550 acoustic dispenser (Labcyte). As a fluorescent probe, SYPRO-Orange (Molecular Probes) was used at 5x final concentration. Filters for excitation and emission were set to 465 nm and 590 nm, respectively. The temperature was increased from 25 °C with 3 °C/min to a final temperature of 99 °C, while scanning, using the QuantStudio5 (Applied Biosystems). Data was analyzed using Boltzmann-equation in the Protein Thermal Shift software (Applied Biosystems). Samples were measured in technical triplicates.

[1] = log10 concentration [M] -3.82391
[2] = log10 concentration [M] -4.1549
[3] = log10 concentration [M] -4.60206
[4] = log10 concentration [M] -5.30103
[5] = log10 concentration [M] -5.69897
[6] = log10 concentration [M] -6.22185
[7] = log10 concentration [M] -6.69897
[8] = log10 concentration [M] -7.30103
[9] = log10 concentration [M] -7.79588
[10] = log10 concentration [M] -8.08092

Sequence of LC3C (Q9BXW4 1-126): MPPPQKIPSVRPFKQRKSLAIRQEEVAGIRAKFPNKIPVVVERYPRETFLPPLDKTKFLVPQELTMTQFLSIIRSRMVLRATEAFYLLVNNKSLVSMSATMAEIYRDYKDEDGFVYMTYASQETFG

## O=C1CC(c2ccc(Cl)c(Cl)c2)CC(=O)C1=CNCCN1CCNCC1 (stereo not shown) [compound 7]
LC3C; [1]
  compound titration LC3C (displacement curve, FP signal): 88.4 and 94.8
LC3C; [2]
  compound titration LC3C (displacement curve, FP signal): 93.8
LC3C; [3]
  compound titration LC3C (displacement curve, FP signal): 97.2 and 97.8
LC3C; log10 concentration [M] -5
  compound titration LC3C (displacement curve, FP signal): 97 and 99.8
LC3C; [4]
  compound titration LC3C (displacement curve, FP signal): 96.8 and 97.6
LC3C; [5]
  compound titration LC3C (displacement curve, FP signal): 92.2 and 91.4
LC3C; [6]
  compound titration LC3C (displacement curve, FP signal): 97.6 and 94.6
LC3C; [7]
  compound titration LC3C (displacement curve, FP signal): 97.4 and 96.8
LC3C; [8]
  compound titration LC3C (displacement curve, FP signal): 96.2 and 101.4
LC3C; [9]
  compound titration LC3C (displacement curve, FP signal): 95.4 and 95.2
LC3C; [10]
  compound titration LC3C (displacement curve, FP signal): 93.8 and 99
All LC3/GABARAPs
  covalent labelling (mass shift, ESI MS): successfully modified
LC3A; [1]
  compound titration LC3A (displacement curve, FP signal): 92.1053 and 96.0526
LC3A; [2]
  compound titration LC3A (displacement curve, FP signal): 100.526 and 101.053
LC3A; [3]
  compound titration LC3A (displacement curve, FP signal): 103.684 and 106.579
LC3A; log10 concentration [M] -5
  compound titration LC3A (displacement curve, FP signal): 107.368 and 103.684
LC3A; [4]
  compound titration LC3A (displacement curve, FP signal): 103.421 and 105
LC3A; [5]
  compound titration LC3A (displacement curve, FP signal): 102.105 and 100
LC3A; [6]
  compound titration LC3A (displacement curve, FP signal): 101.842 and 98.6842
LC3A; [7]
  compound titration LC3A (displacement curve, FP signal): 102.632 and 100.789
LC3A; [8]
  compound titration LC3A (displacement curve, FP signal): 107.368 and 100.526
LC3A; [9]
  compound titration LC3A (displacement curve, FP signal): 97.6316 and 93.4211
LC3A; [10]
  compound titration LC3A (displacement curve, FP signal): 105.526 and 95.7895
GABARAP; [1]
  compound titration GABARAP (displacement curve, FP signal): 86.8966 and 88.6207
GABARAP; [2]
  compound titration GABARAP (displacement curve, FP signal): 89.3103 and 93.4483
GABARAP; [3]
  compound titration GABARAP (displacement curve, FP signal): 97.2414 and 98.6207
GABARAP; log10 concentration [M] -5
  compound titration GABARAP (displacement curve, FP signal): 96.3793 and 100.517
GABARAP; [4]
  compound titration GABARAP (displacement curve, FP signal): 98.6207 and 102.759
GABARAP; [5]
  compound titration GABARAP (displacement curve, FP signal): 91.5517 and 93.2759
GABARAP; [6]
  compound titration GABARAP (displacement curve, FP signal): 93.6207 and 99.4828
GABARAP; [7]
  compound titration GABARAP (displacement curve, FP signal): 97.069 and 100.517
GABARAP; [8]
  compound titration GABARAP (displacement curve, FP signal): 99.8276 and 99.4828
GABARAP; [9]
  compound titration GABARAP (displacement curve, FP signal): 94.8276 and 99.4828
GABARAP; [10]
  compound titration GABARAP (displacement curve, FP signal): 98.1034 and 100.172
GABARAPL1; [1]
  compound titration GABARAPL1 (displacement curve, FP signal): 88.2857 and 89.4286
GABARAPL1; [2]
  compound titration GABARAPL1 (displacement curve, FP signal): 92.7143 and 96.4286
GABARAPL1; [3]
  compound titration GABARAPL1 (displacement curve, FP signal): 99.5714 and 100.571
GABARAPL1; log10 concentration [M] -5
  compound titration GABARAPL1 (displacement curve, FP signal): 97.5714 and 100.286

## NCCCOCCOCCOCCCNC(=O)COc1c(Br)cc(C=C2C(=O)Nc3ccc(I)cc32)cc1Br [compound 18, N-(3-(2-(2-(3-aminopropoxy)ethoxy)ethoxy)propyl)−2-(2,6-dibromo-4-((5-iodo-2-oxoindolin-3-ylidene)methyl)phenoxy)acetamide]
LC3/GABARAP
  enrichment / pulldown of LC3/GABARAP by affinity matrix: did not enrich

## CC(C)C[C@H](NC(=O)[C@H](Cc1c[nH]cn1)NC(=O)[C@@H](NC(=O)[C@H](Cc1c[nH]c2ccccc12)NC(=O)[C@H](CC(=O)O)NC(=O)[C@H](CC(=O)O)NC(=O)[C@H](CC(=O)O)NC(=O)CNC(=O)CNC(=O)[C@H](CO)NC(=O)[C@H](CO)NC(=O)[C@H](CC(N)=O)NC(=O)[C@H](CC(=O)O)NC(=O)[C@@H](N)CO)[C@@H](C)O)C(=O)N[C@@H](CO)C(=O)N[C@@H](CO)C(=O)N[C@@H](CCCCN)C(=O)O [p62-LIR]
LC3/GABARAPs
  ΔTmB, °C difference to the DMSO control: up to 4 °C

Where “and” joins values, the source holds several entries; their conditions need not be identical. Equal values may be shown once.
